This note sets out measurements from the supplement of paper PMC11417369.

Some of the results follow.

For the experiment, the system named is PfHDP1 homeodomain (GST-tagged). The experiment in a line: gcPBM binding intensity (ln(normalized median fluorescence intensity)); higher = stronger DNA binding. The essentials: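 Binding intensity is the highest Masliner-normalised natural-log median intensity over replicate spots in either probe orientation. To obtain it, GST-tagged P. falciparum DNA-binding domains made in E. coli were incubated for 1 h on an Agilent 4 × 180k array of primer-extended double-stranded 36-bp intergenic genomic probes plus negative controls. Detection used Alexa488 anti-GST antibody with scanning at 488 nm.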
On to “TCTCTCTTATAAAATACACACGAACAATCATATTAT [CACACA_site8065]”, for which the “gcPBM binding intensity (ln)” value was found to be 6.72. For “ATTTTTTTTTTTAAATGTACATAATATATATATAAT [XGTACX_site2686]”, the “gcPBM binding intensity (ln)” value worked out at 6.58. On to “CGAACATTATAAATGTCATTTTTTCCAACTTGATCT [GTGCAC_negctrl_site501]”, for which the “gcPBM binding intensity (ln)” value turned out to be 5.94. “TATAAATAATGTTAAACACACATACCGATATATAAC [CACACA_site7306]”: the “gcPBM binding intensity (ln)” value was found to be 6.5. With “AAGCATTTCCATGGTGGTACTATACAAATAATAATT [XGTACX_site6193]” the figure was 6.23; with “AGATTTAAATATCATACACACTTTATCTATAATACA [CACACA_site6581]”, 6.42. As to “TATATTTATTTATATACACACATATTTATAAATATA [CACACA_site7047]”, the “gcPBM binding intensity (ln)” value came to 6.78. On to “CAAAATTGACATGACGCACACAAGTGTAGATATTTT [CACACA_site1250]”, for which the “gcPBM binding intensity (ln)” value turned out to be 6.57. “TAGTTGTTTATAACACGTTGACAGAAATGTTATGTA [GTGCAC_negctrl_site624]”: the “gcPBM binding intensity (ln)” value was 6.02.

As for “GTACAAAAATAAATTGCACACATTTTAATAAAAAAA [CACACA_site2130]”, the “gcPBM binding intensity (ln)” value came out at 9.75. For the sequence “TGTGTACCGATATTAAGTTTAACGTTATAAAAATAT [CACACA_negctrl_site1547]”, the “gcPBM binding intensity (ln)” value worked out at 6.55. For the sequence “AAACAGAATGCATATACACACATACAAAAAAGTGCA [CACACA_site6591]”, the “gcPBM binding intensity (ln)” value was determined as 7.41. Regarding “AAAGGACAAAAAAATGCATGCCGTTAAATTATGTAC [TGCATGCA_site512]”, the “gcPBM binding intensity (ln)” value was found to be 6.44. As for “TTTCTAAACCGGTACAGTACATATAAAAATAGAATA [XGTACX_site6662]”, the “gcPBM binding intensity (ln)” value was determined as 6.74. As for “TATGTGGCACAAAAGGGTACATATAATTTATACAGG [XGTACX_site5499]”, the “gcPBM binding intensity (ln)” value is 7.05. In the case of “AGTGTATTTTTATGTTGTACATGTAATATTTTTGAT [XGTACX_site541]”, the “gcPBM binding intensity (ln)” value stood at 6.8. With “CTTTTTTTTTAAATATCACACACATATAATATATTC [CACACA_site9222]”, the “gcPBM binding intensity (ln)” value turned out to be 6.64. On to “TACAGATATTCATATAAACACACATACAAATTATGT [CACACA_site7929]”, for which the “gcPBM binding intensity (ln)” value was found to be 6.3. On to “TAATTCATCATATGCACACACAATACCAAAATGTGC [CACACA_site191]”, for which the “gcPBM binding intensity (ln)” value was 10.3. For the sequence “TATATAATATATTAATGTACGTTATATGTATTCCTT [XGTACX_site6140]”, the “gcPBM binding intensity (ln)” value amounted to 6.39. The result for “AAACAAAACAAAACATGTACACATTATATATATATA [XGTACX_site3374]” reads 9.04; that for “TTATTTATTTATTGTTGTACACAAAATGATTCTTAA [XGTACX_site6480]”, 6.84; that for “ATTAATTATATATATACACACACATACACCCAAATA [CACACA_site9126]”, 7.51. Turning to “TAAATACTTCGTAAAACACACAAGTAGAAAAAAAAA [CACACA_site360]”, the “gcPBM binding intensity (ln)” value came to 6.46. Turning to “AAAAATATAATATATGCACACATACATACATATATA [CACACA_site7915]”, the “gcPBM binding intensity (ln)” value turned out to be 9.65. With “ATAATTAGTTCAATTTTTTTTTTTTTTTTTTTTTTT [CACACA_negctrl_site1371]”, the “gcPBM binding intensity (ln)” value is 6.91. Regarding “TATACATCATTTTTCAACAACAAAAAAAAAAAAAAT [CACACA_negctrl_site1185]”, the “gcPBM binding intensity (ln)” value came to 6.24. With “ATATATATAAATACAACACACATGTAATATATAAAT [CACACA_site5766]” the figure was 6.79; with “ACGTAAAATAGGGACGCATGCACAAATATTTTTAAA [TGCATGCA_site336]”, 7.93. In the case of “TATATAAATATATACACACATACATACATACATATA [CACACA_site3835]”, the “gcPBM binding intensity (ln)” value was found to be 6.78. With “TTCTAATAAATGTGTTGTACACCTTTAGCAACTATT [XGTACX_site3235]” the figure was 6.4; with “CTATATATATATTTCAGTACATATTAAGAATATATA [XGTACX_site4860]”, 6.34. Consider “TAATAATTACAAAGAAGTACATAAAAAAAAATTTAT [XGTACX_site4684]”, for which the “gcPBM binding intensity (ln)” value was 6.31. With “AGGAAAAAAGAAAAAACACACATAAATATTTATATA [CACACA_site7446]”, the “gcPBM binding intensity (ln)” value stood at 6.32. Regarding “TATATATATTTATGCACACAAAATATATTATATAAT [CACACA_site5955]”, the “gcPBM binding intensity (ln)” value was 10.4. With “TCTTTCTTATTTTAATGATATTTATTCATTCCAGTT [CACACA_negctrl_site1679]” the figure was 6.52.

Take “ATATAAATAAATATATGTACACACACAAATATATAC [XGTACX_site3950]”: the “gcPBM binding intensity (ln)” value came to 6.55.

“AAAAAACACGCGCACACACACACACGCGCCCACATA [CACACA_site7106]”: the “gcPBM binding intensity (ln)” value was determined as 7.52. “ATAAAAAAAAATATTTGTACACATATTTATATATTA [XGTACX_site8147]”: the “gcPBM binding intensity (ln)” value stood at 6.56. “AATACTAAAACCCATACACACACATATATATAGTAC [CACACA_site9041]”: the “gcPBM binding intensity (ln)” value worked out at 7.05. ACTTTTACACTTTGATTGCACTACTAAACCAGTTCA: the “gcPBM binding intensity (ln)” value was found to be 9.37.

On to “AGAATTATTCTAAAAACACACAATACAAAAGTGCAT [CACACA_site3004]”, for which the “gcPBM binding intensity (ln)” value stood at 6.91. In the case of “TGAACAATATATAATAGTACATATTTATTTTTTTCT [XGTACX_site4256]”, the “gcPBM binding intensity (ln)” value amounted to 6.01. With “TCTTTCAATATTAATGCATGTTAATAATAAATTTTA [TGCATGCA_site448]”, the “gcPBM binding intensity (ln)” value stood at 6.4.
